# According to PubChem BioAssay AID485281 (National Center for Advancing Translational Sciences (NCATS), 2010):
# Screen size: about 350,000 compounds; about 260 (0.074%) were called active. The shares of active, inactive and inconclusive entries below differ from those in the screen. Calls come from the whole dose curve; as a rule, active = well fitted inhibition curve with a large enough effect; inconclusive = small, poorly fitted or top-dose-only effect; inactive = no such curve, though single readings can be large or run the other way. Where the call is inconclusive, the potency comes from a doubtful curve fit.
# Target: Ferritin light chain (Equus caballus) (UniProt P02791)
# UniProt P02791, sequence (P02791 whole entry, looked up): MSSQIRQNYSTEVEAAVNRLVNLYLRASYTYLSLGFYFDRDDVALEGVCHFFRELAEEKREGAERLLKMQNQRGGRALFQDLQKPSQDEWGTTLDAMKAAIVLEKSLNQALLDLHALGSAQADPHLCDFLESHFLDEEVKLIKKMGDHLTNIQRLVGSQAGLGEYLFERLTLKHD
# Assay: qHTS Assay for Identification of Novel General Anesthetics; note: nearly all actives have a fitted effect of over 20% in size
# Conditions: apoferritin/1-aminoanthracene competitive binding, fluorescence; activity change, negative = displacement: at 77.5 µM (top of the series)
# How it was run: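 Horse-spleen apoferritin (10 uM) in 50% saturated 1-aminoanthracene in PBS was incubated 10 min at room temperature with compound. Fluorescence (ex 380, em 535 nm) was normalized to free and bound 1-AMA, with concentration-response fitted by a four-parameter Hill equation.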
# % is set by controls: 0 for no effect and ±100 for the full control effect; potency is the fitted concentration of half-maximal effect; tags give direction and shape of the fitted curve.
SMILES,"activity change, negative = displacement",Potency
CSc1ccc(/C=N/n2c(C)nnc2C)cc1,inactive: -7.72%,
O=C(COc1ncnc2scc(-c3ccc(F)cc3)c12)NCc1ccco1,,"inconclusive: 25.1 µM [inhibitor, partial curve]"
Cc1cc(C)c2nc(-c3ccccn3)cc(C(=O)Nc3ccc(S(=O)(=O)Nc4cc(C)on4)cc3)c2c1,,"inconclusive: 35.5 µM [inhibitor, single point]"
CC1=CC(=O)CC2C1(C)CCC(C)C2(C)CCC(C)CC(=O)O (centres undefined),inactive: -3%,
CCC(C)NC(=O)CN(c1ccc(OC)cc1)S(=O)(=O)c1ccccc1 (centres undefined),,"inconclusive: 35.5 µM [inhibitor, partial curve]"
CCn1c(COc2ccccc2C)nc2ccccc21,,"inconclusive: 35.5 µM [inhibitor, partial curve]"
Oc1c(CN2CCOCC2)cc(COCc2ccccc2)c2cccnc12,inactive: -6.67%,
O=S(=O)(c1cccc2cccnc12)N1CCN(c2ccc(F)cc2)CC1,,"inconclusive: 28.2 µM [inhibitor, partial curve]"
COc1ccccc1NC(=O)C1=C(C)Nc2nc(SCc3ccc(Cl)cc3)nn2C1c1ccccc1Cl (centres undefined),inactive: -3.13%,
COc1ccc(S(=O)(=O)NC(C)CCc2ccccc2)cc1 (centres undefined),,"inconclusive: 35.5 µM [inhibitor, single point]"
Cc1nn(C)c(C(=O)Nc2ccc(S(=O)(=O)NC34CC5CC(CC(C5)C3)C4)cc2)c1Br,inactive: 57.3%,
COc1ccccc1NS(=O)(=O)c1cccs1,,"inconclusive: 35.5 µM [inhibitor, partial curve]"
COc1cccc(-n2c(SCC(=O)Nc3cccc(Cl)c3)nc3c(oc4ccccc43)c2=O)c1,inactive: -15.7%,
c1ccc(CCNCCCOc2cccc3ccccc23)cc1,,"inconclusive: 50.1 µM [inhibitor, single point]"
CS(=O)(=O)c1oc(-c2ccc(F)cc2)nc1S(=O)(=O)c1ccc(Cl)cc1,inactive: -11.5%,
Cc1cccc(CN2CCN(Cc3ccco3)CC2)c1,inactive: -9.77%,
COc1ccc(Cl)cc1NC(=O)CSC1=Nc2ccccc2C2=NC(CC(=O)NC3CCCCC3)C(=O)N12 (centres undefined),,"inconclusive: 8.91 µM [inhibitor, partial curve]"
COc1ccc(NC(=O)c2cccc(N3C(=O)c4ccc(C(=O)Nc5ccc(OC)c(O)c5)cc4C3=O)c2)cc1O,inactive: -8.96%,
CSc1ncccc1C(=O)NC1CCCCCCC1,,"inconclusive: 50.1 µM [inhibitor, single point]"
CC(=O)c1cccc(NC(=O)Oc2ccccc2)c1,inactive: -15.5%,
COCCNC(=S)NC(=O)c1ccc(C(C)(C)C)cc1,,"inconclusive: 31.6 µM [inhibitor, partial curve]"
COc1ccc(C(=O)Nn2c(SCC(=O)NC3CCCCC3)nc3ccccc3c2=O)cc1,,"inconclusive: 35.5 µM [inhibitor, partial curve]"
COC(=O)[C@@]1(Cc2ccccc2)[C@H]2c3cc(C(=O)N4CCCC4)n(Cc4ccccn4)c3C[C@H]2CN1C(=O)c1ccccc1,,"inconclusive: 39.8 µM [inhibitor, single point]"

SMILES,"activity change, negative = displacement",Potency
Cc1ccc(C(=O)Nc2ccccc2C(=O)O)cc1S(=O)(=O)Nc1ccccc1,inactive: -10.9%,
COc1ccc(-n2ncc3c(N4CCC(C)CC4)ncnc32)cc1,inactive: -6.59%,
COc1cccc(CNc2nccn(-c3cc(C)cc(C)c3)c2=O)c1,,"inconclusive: 35.5 µM [inhibitor, single point]"
Cc1cccc(C(=O)OCN2C(=O)c3ccccc3C2=O)c1[N+](=O)[O-],,"inconclusive: 39.8 µM [inhibitor, single point]"
COc1cc(O)oc1C=Nc1ccc(Oc2ccccc2)cc1,,"inconclusive: 31.6 µM [inhibitor, partial curve]"
O=C(c1ccccc1)c1ccc(OCCn2cnc3ccccc3c2=O)cc1,,"inconclusive: 31.6 µM [inhibitor, partial curve]"
CCc1ccc(Nc2ncc3c(n2)CC(c2ccco2)CC3=O)cc1 (centres undefined),,"inconclusive: 1.78 µM [inhibitor, full curve, poor fit]"
Cc1cc(C)c(C(=O)N2CCCC(Nc3ccc(C)c(C)c3)C2)o1 (centres undefined),,"inconclusive: 28.2 µM [inhibitor, single point]"
O=C1CC(SCCO)C(=O)N1c1ccccc1 (centres undefined),,"inconclusive: 39.8 µM [inhibitor, single point]"
CCC(C(=O)Nc1ccc2[nH]ncc2c1)c1ccccc1 (centres undefined),,"inconclusive: 25.1 µM [inhibitor, partial curve]"
Cc1ccccc1NC(=O)/C(C#N)=C\c1cn(CC(=O)O)c2ccccc12,,"inconclusive: 28.2 µM [inhibitor, single point]"
CCOC(=O)c1c(-c2cccs2)csc1N,,"inconclusive: 25.1 µM [inhibitor, partial curve]"
CCSc1ncc(Cl)c(C(=O)Nc2ccc(S(=O)(=O)N3CCC(C)CC3)cc2)n1,,"inconclusive: 14.1 µM [inhibitor, partial curve]"
COc1ccc(NS(=O)(=O)c2cc(NC(=O)c3ccc(=O)[nH]c3)ccc2N2CCOCC2)cc1,,"inconclusive: 22.4 µM [inhibitor, partial curve]"
COC(=O)C1CSC(C(=O)OC)N1C(=O)Nc1ccc(Cl)cc1 (centres undefined),,"inconclusive: 25.1 µM [inhibitor, partial curve]"
COC(=O)C1=C(C)NC(=O)/C1=C\c1cc(C)n(-c2ccccc2C)c1C,,"inconclusive: 14.1 µM [inhibitor, partial curve]"
COC(=O)c1sccc1NC(=O)/C=C/c1ccc(Cl)cc1Cl,inactive: -5.45%,
O=C(O)CN1C(=O)/C(=C/C=C/c2ccccc2)SC1=S,inactive: -10.5%,
O=C(Cc1ccccc1)n1nc(-c2ccco2)nc1SCc1ccccc1,,"inconclusive: 15.8 µM [inhibitor, partial curve]"
Cc1nn(C)c(C(=O)Nc2cccc(Nc3ccccc3)c2)c1[N+](=O)[O-],,"inconclusive: 28.2 µM [inhibitor, partial curve]"
Cc1ccc(NC(=O)c2c(NC(=O)Cc3ccccc3)sc3c2CCC3)cc1,inactive: 91%,
COc1cccc(-c2nc(NCCN3CCOCC3)c3ccccc3n2)c1O,inactive: -16.8%,
Cc1cc(C)n(-c2ccc(C(=O)OCC(=O)c3c(N)n(C)c(=O)n(C)c3=O)cc2)n1,,"inconclusive: 35.5 µM [inhibitor, partial curve]"

SMILES,"activity change, negative = displacement",Potency
O=c1nc2c(-c3ccc(F)cc3Cl)n[nH]n2c2ccccc12,inactive: -0.0023%,
CC(=O)c1c(-c2ccccc2)c2cc(Cl)ccc2n(C)c1=O,,"inconclusive: 25.1 µM [inhibitor, partial curve]"
Cc1cc(=O)oc2cc(OCC(=O)OCC(=O)Nc3ccc(C(C)C)cc3)ccc12,,"inconclusive: 39.8 µM [inhibitor, partial curve]"
COc1cc(S(=O)(=O)N(C)C)ccc1Br,,"inconclusive: 15.8 µM [inhibitor, partial curve]"
COc1cccc(C(=O)OCC(=O)NC(=O)NC2CCCC2)c1O,,"inconclusive: 22.4 µM [inhibitor, partial curve]"
CC(C)(C)NC(=O)NC(=O)COC(=O)Cc1ccc(Cl)cc1Cl,,"inconclusive: 35.5 µM [inhibitor, partial curve]"
CC[C@H](C)[C@H](NC(=O)[C@H](CC(C)C)NC(=O)[C@H](CC(N)=O)NC(=O)[C@@H](NC(=O)[C@@H](N)Cc1ccc(O)cc1)[C@@H](C)CC)C(=O)N[C@@H](Cc1ccc(O)cc1)C(=O)N[C@@H](CCCN=C(N)N)C(=O)N[C@@H](CC(C)C)C(=O)N[C@@H](CCCN=C(N)N)C(=O)N[C@@H](Cc1ccc(O)cc1)C(N)=O,inactive: 1.19%,
CCn1cc(Cl)c(C(=O)Nc2cccc(C(F)(F)F)c2)n1,,"inconclusive: 31.6 µM [inhibitor, partial curve]"
CCCCC(CC(O)COCC(C)C)C(=O)NN (centres undefined),,"inconclusive: 17.8 µM [inhibitor, partial curve]"
CCOc1ccccc1NC(=O)C1CCN(S(=O)(=O)c2c(C)noc2C)CC1,,"inconclusive: 50.1 µM [inhibitor, single point]"
COC(=O)c1cccc(Nc2c(-c3ccc(OC)cc3)nc3nc[nH]n23)c1,inactive: 6.19%,
CCCn1c(C)cc(/C=C(\C#N)C(=O)OCC(=O)Nc2ccc(OC)c(Cl)c2)c1C,inactive: 54.6%,
CC1=NOC(=O)/C1=C\c1ccc(-c2ccc(Br)cc2)o1,,"inconclusive: 17.8 µM [inhibitor, partial curve]"
CC1(CC(=O)N/N=C/c2ccc(OCc3ccc(Cl)cc3Cl)cc2)OCCCO1,inactive: -17.3%,
Cc1ccc(C(=O)NCC(=O)NC2CCCCCC2)cc1,,"inconclusive: 22.4 µM [inhibitor, partial curve]"
CC1(C)Cc2ccccc2C(/C(=N\Nc2cccc(Cl)c2)C(N)=O)=N1,inactive: -20.1%,
Nc1c(C(=O)NCCN2CCOCC2)c2nc3ccccc3nc2n1-c1ccc2c(c1)OCO2,inactive: 6.96%,
CCC1=Nc2cc(C(=O)NCc3ccccc3Cl)ccc2Sc2ccc(C)cc21,inactive: -16.6%,
O=C(NC(=S)NC1CCCCC1)c1ccccc1[N+](=O)[O-],,"inconclusive: 35.5 µM [inhibitor, partial curve]"
O=C(CSc1nncn2c1cc1occc12)Nc1ccccc1C(F)(F)F,,"inconclusive: 56.2 µM [inhibitor, single point]"
CC(C)Cc1oc(C(=O)O)cc1CN,,"inconclusive: 28.2 µM [inhibitor, single point]"
CC(C)NC(=O)c1cc(-c2ccc(Br)cc2)on1,inactive: -14.5%,
O=C1c2cccc3cccc(c23)C(=O)N1CC1CCN(CC(O)COc2ccc3ccccc3c2)CC1 (centres undefined),,"inconclusive: 25.1 µM [inhibitor, partial curve]"
